Experimental findings from US20240076343A1 are described below.

What all share (test): cell-based or functional assay
The target of test [1] is high-affinity hIL-2 receptor (IL-2Rαβγ) (human) (UniProt P01589).
Test [2] deals with intermediate affinity hIL-2 receptor complex (IL-2Rβγ) (human) (UniProt P14784).
The target of test [3] is intermediate affinity hIL-2 receptor complex (IL-2Rβγ) on TF1+IL-2Rβ cells (human) (UniProt P14784).
In test [4] the target is intermediate affinity hIL-2 receptor (hIL-2Rβγ) on TF1+IL-2Rβ cells (human) (UniProt P14784).
Test [5] concerns the target high-affinity hIL-2 receptor (IL-2Rαβγ) on NK-92 cells (human) (UniProt P01589).

Some results are limits rather than exact numbers.

B1: 1H3-hIgG1-L6-hIL-2 (R38D/I92D) (protein)
heavy: EVQLVESGGGLVQPGRSLKLSCAVSGFTFSDYAMAWVRQAPKKGLEWVATISYDGSRTYYRDSVKGRFTISRDNAKITLYLQMDSLRSEDTATYYCARHGSGYFDYWGQGVMVTVSS[not shown - about 450 residues with a human IgG1 Fc and changes]
light: DTVLTQSPALAVSPGERVTISCRASESVRTGVHWYQQKPGQQPKLLIYGASNLESGVPARFSGSGSGTDFTLTIDPVEADDTATYFCQQSWNDPFTFGSGTKLEIKRTVAAPSVFIFPPSDEQLKSGTASVVCLLNNFYPREAKVQWKVDNALQSGNSQESVTEQDSKDSTYSLSSTLTLSKADYEKHKVYACEVTHQGLSSPVTKSFNRGEC
In test [1], B1 gave an Agonistic Activity (NK-92), pSTAT5 titration of 80% and a Fold change from rhIL-2 (NK-92), pSTAT5 titration of over 10000 fold. Besides, in test [2], the Agonistic Activity (TF1 + IL-2Rβ), pSTAT5 titration turned out to be 80% and the Fold change from rhIL-2 (TF1 + IL-2Rβ), pSTAT5 titration is 338 fold. Besides, the Fold change from hIL-2 (TF1 + IL-2Rβ) in test [3] came out at 2 fold. The Fold change from rhIL-2 (TF1 + IL-2Rβ) in test [4] is 172 fold. In addition, in test [5], the Agonistic Activity (NK-92) was 90%, the Fold change from hIL-2 (NK-92) amounted to 15 fold and the Fold change from rhIL-2 (NK-92) turned out to be 746 fold.

B2: 1H3-hIgG1-L6-hIL-2 (R38E/D84K) (protein)
heavy: EVQLVESGGGLVQPGRSLKLSCAVSGFTFSDYAMAWVRQAPKKGLEWVATISYDGSRTYYRDSVKGRFTISRDNAKITLYLQMDSLRSEDTATYYCARHGSGYFDYWGQGVMVTVSS[not shown - about 450 residues with a human IgG1 Fc and changes]
light: B1 light
In test [1], B2 registered an Agonistic Activity (NK-92), pSTAT5 titration of 40% and a Fold change from rhIL-2 (NK-92), pSTAT5 titration of over 10000 fold. In test [2], the Agonistic Activity (TF1 + IL-2Rβ), pSTAT5 titration is 80% and the Fold change from rhIL-2 (TF1 + IL-2Rβ), pSTAT5 titration turned out to be 45 fold. Also, the Fold change from hIL-2 (TF1 + IL-2Rβ) in test [3] came to 2 fold. Moreover, in test [4], the Fold change from rhIL-2 (TF1 + IL-2Rβ) came out at 315 fold. In test [5], this molecule registered an Agonistic Activity (NK-92) of 70%, a Fold change from hIL-2 (NK-92) of 14 fold and a Fold change from rhIL-2 (NK-92) of over 10000 fold.

B3: 1H3-hIgG1-L6-hIL-2 (R38D/E61R/D20A) (protein)
heavy: EVQLVESGGGLVQPGRSLKLSCAVSGFTFSDYAMAWVRQAPKKGLEWVATISYDGSRTYYRDSVKGRFTISRDNAKITLYLQMDSLRSEDTATYYCARHGSGYFDYWGQGVMVTVSS[not shown - human IgG1 constant region]SGGGGSAPTSSSTKKTQLQLEHLLLALQMILNGINNYKNPKLTDMLTFKFYMPKKATELKHLQCLERELKPLEEVLNLAQSKNFHLRPRDLISNINVIVLELKGSETTFMCEYADETATIVEFLNRWITFCQSIISTLT
light: B1 light
Take B3: in test [1], the Agonistic Activity (NK-92), pSTAT5 titration is 40% and the Fold change from rhIL-2 (NK-92), pSTAT5 titration is over 10000 fold. In test [2], the Agonistic Activity (TF1 + IL-2Rβ), pSTAT5 titration turned out to be 70% and the Fold change from rhIL-2 (TF1 + IL-2Rβ), pSTAT5 titration was 62 fold. Moreover, in test [3], the Fold change from hIL-2 (TF1 + IL-2Rβ) was 3 fold. Also, the Fold change from rhIL-2 (TF1 + IL-2Rβ) in test [4] is 984 fold. In addition, in test [5], the Agonistic Activity (NK-92) was determined as 50%, the Fold change from hIL-2 (NK-92) amounted to 12 fold and the Fold change from rhIL-2 (NK-92) is over 10000 fold.

B4: 1H3-hIgG1-L6-hIL-2 (D20A/E95A/Y45A) (protein)
heavy: EVQLVESGGGLVQPGRSLKLSCAVSGFTFSDYAMAWVRQAPKKGLEWVATISYDGSRTYYRDSVKGRFTISRDNAKITLYLQMDSLRSEDTATYYCARHGSGYFDYWGQGVMVTVSS[not shown - human IgG1 constant region]SGGGGSAPTSSSTKKTQLQLEHLLLALQMILNGINNYKNPKLTRMLTFKFAMPKKATELKHLQCLEEELKPLEEVLNLAQSKNFHLRPRDLISNINVIVLALKGSETTFMCEYADETATIVEFLNRWITFCQSIISTLT
light: B1 light
In test [1], B4 registered an Agonistic Activity (NK-92), pSTAT5 titration of 90% and a Fold change from rhIL-2 (NK-92), pSTAT5 titration of 62 fold. Also, in test [2], the Agonistic Activity (TF1 + IL-2Rβ), pSTAT5 titration came to 70% and the Fold change from rhIL-2 (TF1 + IL-2Rβ), pSTAT5 titration was found to be 300 fold. In addition, the Fold change from hIL-2 (TF1 + IL-2Rβ) in test [3] was 5 fold. In addition, in test [4], the Agonistic Activity (TF1 + IL-2Rβ) turned out to be 90% and the Fold change from rhIL-2 (TF1 + IL-2Rβ) turned out to be 82 fold. In test [5], this molecule yielded a Fold change from hIL-2 (NK-92) of 4 fold and a Fold change from rhIL-2 (NK-92) of 25 fold.

B5: 1H3-hIgG1-L6-hIL-2 (R38A/E61R/D20A) (protein)
heavy: EVQLVESGGGLVQPGRSLKLSCAVSGFTFSDYAMAWVRQAPKKGLEWVATISYDGSRTYYRDSVKGRFTISRDNAKITLYLQMDSLRSEDTATYYCARHGSGYFDYWGQGVMVTVSS[not shown - human IgG1 constant region]SGGGGSAPTSSSTKKTQLQLEHLLLALQMILNGINNYKNPKLTAMLTFKFYMPKKATELKHLQCLERELKPLEEVLNLAQSKNFHLRPRDLISNINVIVLELKGSETTFMCEYADETATIVEFLNRWITFCQSIISTLT
light: B1 light
Consider B5, for which, in test [1], the Agonistic Activity (NK-92), pSTAT5 titration is 40% and the Fold change from rhIL-2 (NK-92), pSTAT5 titration is over 10000 fold. Also, in test [2], the Agonistic Activity (TF1 + IL-2Rβ), pSTAT5 titration was 60% and the Fold change from rhIL-2 (TF1 + IL-2Rβ), pSTAT5 titration amounted to 130 fold. Besides, the Fold change from hIL-2 (TF1 + IL-2Rβ) in test [3] stood at 3 fold. Also, in test [4], the Fold change from rhIL-2 (TF1 + IL-2Rβ) amounted to 1030 fold. In test [5], this molecule registered an Agonistic Activity (NK-92) of 60%, a Fold change from hIL-2 (NK-92) of 13 fold and a Fold change from rhIL-2 (NK-92) of over 10000 fold.

B6: 1H3-hIgG1-L6-hIL-2 (D20A/E95A/F42H) (protein)
heavy: EVQLVESGGGLVQPGRSLKLSCAVSGFTFSDYAMAWVRQAPKKGLEWVATISYDGSRTYYRDSVKGRFTISRDNAKITLYLQMDSLRSEDTATYYCARHGSGYFDYWGQGVMVTVSS[not shown - human IgG1 constant region]SGGGGSAPTSSSTKKTQLQLEHLLLALQMILNGINNYKNPKLTRMLTHKFYMPKKATELKHLQCLEEELKPLEEVLNLAQSKNFHLRPRDLISNINVIVLALKGSETTFMCEYADETATIVEFLNRWITFCQSIISTLT
light: B1 light
With B6, in test [1], the Agonistic Activity (NK-92), pSTAT5 titration was found to be 80% and the Fold change from rhIL-2 (NK-92), pSTAT5 titration was determined as 3580 fold. Also, in test [2], the Fold change from rhIL-2 (TF1 + IL-2Rβ), pSTAT5 titration was 411 fold. Also, the Fold change from hIL-2 (TF1 + IL-2Rβ) in test [3] is 4 fold. Besides, the Fold change from rhIL-2 (TF1 + IL-2Rβ) in test [4] amounted to 320 fold. In test [5], this molecule yielded an Agonistic Activity (NK-92) of 90%, a Fold change from hIL-2 (NK-92) of 22 fold and a Fold change from rhIL-2 (NK-92) of 641 fold.

B7: 1H3-hIgG1-L6-hIL-2 (D20A/E95A/F42K) (protein)
heavy: EVQLVESGGGLVQPGRSLKLSCAVSGFTFSDYAMAWVRQAPKKGLEWVATISYDGSRTYYRDSVKGRFTISRDNAKITLYLQMDSLRSEDTATYYCARHGSGYFDYWGQGVMVTVSS[not shown - human IgG1 constant region]SGGGGSAPTSSSTKKTQLQLEHLLLALQMILNGINNYKNPKLTRMLTKKFYMPKKATELKHLQCLEEELKPLEEVLNLAQSKNFHLRPRDLISNINVIVLALKGSETTFMCEYADETATIVEFLNRWITFCQSIISTLT
light: B1 light
As for B7, in test [1], the Agonistic Activity (NK-92), pSTAT5 titration amounted to 50% and the Fold change from rhIL-2 (NK-92), pSTAT5 titration is over 10000 fold. For the same molecule, in test [2], the Agonistic Activity (TF1 + IL-2Rβ), pSTAT5 titration came out at 60% and the Fold change from rhIL-2 (TF1 + IL-2Rβ), pSTAT5 titration is 82 fold. Further, the Fold change from hIL-2 (TF1 + IL-2Rβ) in test [3] came out at 4 fold. For the same molecule, in test [4], the Agonistic Activity (TF1 + IL-2Rβ) stood at 80% and the Fold change from rhIL-2 (TF1 + IL-2Rβ) stood at 272 fold. In test [5], this molecule had a Fold change from hIL-2 (NK-92) of 21 fold and a Fold change from rhIL-2 (NK-92) of over 10000 fold.
